These results are taken from PubChem BioAssay AID360 (National Center for Advancing Translational Sciences (NCATS), 2006).

SMILES strings stand for the structures. Among all 48,000 compounds or so, about 550 (1.1%) were called active. Inconclusive results (about 4%) are left out. Cut-off read from the data, not from the text of the source: active = potency below about 15 µM; inconclusive = mostly about 16 µM to 33 µM; inactive = weaker than that. This is one part of the list.
Potency is the fitted concentration of half-maximal effect.

Sequence of UniProt P04062 (P04062 whole entry, looked up): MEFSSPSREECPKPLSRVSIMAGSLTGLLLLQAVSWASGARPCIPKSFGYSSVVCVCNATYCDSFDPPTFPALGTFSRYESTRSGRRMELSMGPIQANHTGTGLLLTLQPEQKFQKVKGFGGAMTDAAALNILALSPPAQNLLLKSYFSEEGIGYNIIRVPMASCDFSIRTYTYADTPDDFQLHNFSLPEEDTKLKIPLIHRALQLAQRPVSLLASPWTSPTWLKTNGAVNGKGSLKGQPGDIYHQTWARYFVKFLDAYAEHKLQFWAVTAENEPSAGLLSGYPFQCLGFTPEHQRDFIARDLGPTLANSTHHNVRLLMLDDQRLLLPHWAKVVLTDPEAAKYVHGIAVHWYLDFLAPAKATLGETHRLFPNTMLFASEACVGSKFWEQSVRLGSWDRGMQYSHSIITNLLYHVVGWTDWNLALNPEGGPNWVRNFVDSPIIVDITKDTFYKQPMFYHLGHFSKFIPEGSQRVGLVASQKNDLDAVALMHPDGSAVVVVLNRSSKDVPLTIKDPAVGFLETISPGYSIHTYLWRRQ

The target in the assay is Lysosomal acid glucosylceramidase (Homo sapiens) (UniProt P04062). As to the kind of experiment: Glucocerebrosidase.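 Note: the screen sought inhibitors.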 Particulars: purified enzyme, resorufin glucoside fluorescence (screen aimed at inhibitors), 20 min. The essentials:
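Normal human glucocerebrosidase (0.2 nM final) was assayed with resorufin β-D-glucopyranoside (30 uM final) in 50mM citric acid/KH2PO4, 10mM sodium taurocholate, 0.01% tween-20, pH 5.9. Compounds were titrated; fluorescence (Ex 548, Em 600) read after 20 min at RT.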
As for `CCCCCn1c(CN2CCCCC2C)nc2c1c(=O)n(C)c(=O)n2C` (stereo unspecified), the Potency is inactive: > 76.9 µM.

As for `CC1=CC(C)(C)Nc2cc(C)c(C)cc21`, the Potency is inactive: > 76.9 µM.

For the molecule `CCOC(=O)c1cnn(-c2cccc(Cl)c2)c1N`, the Potency is inactive: > 76.9 µM.

On to `CCOc1ccc2nc(NC(=O)CSc3nc4ccccc4c(=O)n3Cc3ccco3)sc2c1`, for which the Potency was inactive: > 76.9 µM.

As to `O=S(=O)(Cc1ccc(Cl)cc1)NCC1CCCO1` (stereo unspecified), the Potency was inactive: > 76.9 µM.

Consider `CC1(C)OC(=O)N(c2cccnc2)C1(C)O` (stereo unspecified), for which the Potency is inactive: > 76.9 µM.

Turning to `Clc1ccc(SCCCCn2cncn2)cc1`, the Potency was inactive: > 76.9 µM.

On to `Nc1ccc2c(c1)C(=O)N(CCCC(=O)O)C2=O`, for which the Potency is inactive: > 76.9 µM.

Consider `Cn1c(CN2CCCCC2)nc2cc(NC(=O)c3cccs3)ccc21`, for which the Potency is inactive: > 76.9 µM.

In the case of `O=C(CN1CCN(S(=O)(=O)c2ccc(F)cc2)CC1)Nc1cccc(C(F)(F)F)c1`, the Potency was inactive: > 76.9 µM.

Take `CC1=C(C(=O)Nc2ccccc2C)C2(CCCC2)C(C(N)=O)C(=O)N1` (stereo unspecified): the Potency was inactive: > 76.9 µM.

On to `O=C(CSc1nc2c(c(=O)n1-c1ccc(Cl)cc1)SCC2)N1CCCC1`, for which the Potency is inactive: > 76.9 µM.

`O=S(=O)(c1cccs1)N1CCN(CC(O)COC2CCCc3ccccc32)CC1` (stereo unspecified): the Potency entry is “inactive”.

Consider `CCOc1ccccc1NC(=O)C1CC2CCCC(C1)C2=O` (stereo unspecified), for which the Potency is inactive: > 76.9 µM.

Regarding `Cc1[nH]nc2c1C(c1ccccc1F)CC(=O)N2` (stereo unspecified), the Potency is inactive: > 76.9 µM.

In the case of `Cc1csc(NC(=O)CSc2nnc(-c3ccncc3)o2)n1`, the Potency was inactive: > 76.9 µM.

With `CN(c1ccc(C(=O)N2CCCCC2)cc1)S(C)(=O)=O`, the Potency is inactive: > 76.9 µM.

For `O=C(/C=N/O)Nc1cccnc1`, the Potency is inactive: > 76.9 µM.

Take `CCOc1cc(C2C(C(=O)OC)=C(C)N=C3SC(C)C(=O)N32)ccc1OC(C)=O` (stereo unspecified): the Potency was inactive: > 76.9 µM.

As for `O=C(NCc1ccncc1)c1nnc(Cc2c(F)cccc2Cl)o1`, the Potency was inactive: > 76.9 µM.

For the molecule `CCCCOc1ccc(-c2ncc(C(=O)OCC)c(N)n2)cc1`, the Potency was inactive: > 76.9 µM.

On to `CC1=C(C(=O)OC(C)(C)C)C(c2ccco2)C(C#N)=C(N)O1` (stereo unspecified), for which the Potency is inactive: > 76.9 µM.

As to `Cc1c(N2C(=O)C(C)SC23C(=O)Nc2ccccc23)c(=O)n(-c2ccccc2)n1C` (stereo unspecified), the Potency was inactive: > 76.9 µM.

As for `COc1ccccc1-c1noc(-c2ccncc2)n1`, the Potency was inactive: > 76.9 µM.

As to `COc1ccc(S(=O)(=O)N2CCC(O)(c3ccc(Cl)cc3)CC2)cc1`, the Potency is inactive: > 76.9 µM.

Turning to `Cc1ccc(N(CC(=O)O)S(C)(=O)=O)cc1Cl`, the Potency was inactive: > 76.9 µM.
